Measurements reported in a collection of fitness landscapes (doi:10.1038/s41467-024-54723-y).
In all, about 18,000 sequences were measured (“TetR repression strength (sort-seq, GFP reporter)”: median about 0.23, highest 2% from about 0.68 on). The list shows a part of the results.

molecular target: TetR (class B, Tn10) (UniProt P04483); test: TetR repression strength (sort-seq, GFP reporter) (relative to tetO2 = 1); higher = stronger repression; conditions: E. coli
Procedure, shortened: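 Three independent transformations of E. coli SIG10-MAX were made with a low-copy plasmid library randomizing eight operator positions between a constitutive promoter and sfGFP, with constitutive TetR. Following 5 h at 37 °C in LB plus 50 µg/mL chloramphenicol, 10^6 cells went through FACS into 13 fluorescence bins, and each bin was sequenced by Illumina. Repression strength was defined as the top bin index plus one minus the read-weighted mean bin, divided by the unaltered operator's value. Averages included only members reaching ≥30 reads in all replicates with a CV ≤0.5.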

UniProt P04483, sequence (P04483 whole entry): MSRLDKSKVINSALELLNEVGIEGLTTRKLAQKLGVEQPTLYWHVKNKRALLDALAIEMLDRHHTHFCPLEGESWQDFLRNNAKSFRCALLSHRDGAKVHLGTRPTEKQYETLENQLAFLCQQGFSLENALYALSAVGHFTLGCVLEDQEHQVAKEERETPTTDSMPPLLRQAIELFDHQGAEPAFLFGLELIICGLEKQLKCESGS

Row | Sequence | TetR repression strength
1 | TCCCGAATAGTGTCGGAGA | 0.173
2 | TCCCGTAGAGTCCTCGAGA | 0.357
3 | TCCCGGGAAGTCGATGAGA | 0.12
4 | TCCCGAAGAGTGTGAGAGA | 0.18
5 | TCCCCACTAGTTTGAGAGA | 0.232
6 | TCCCACGCAGTTTTGGAGA | 0.104
7 | TCCCGGCAAGTCATGGAGA | 0.23
8 | TCCCGTGCAGTACGTGAGA | 0.255
9 | TCCCCCCCAGTTACAGAGA | 0.398
10 | TCCCTGAGAGTGTGGGAGA | 0.158
11 | TCCCTTATAGTTCCCGAGA | 0.41
12 | TCCCATGCAGTAGCTGAGA | 0.135
13 | TCCCGATCAGTTGAAGAGA | 0.18
14 | TCCCTAAGAGTCGGTGAGA | 0.286
15 | TCCCTCAAAGTCCCGGAGA | 0.367
16 | TCCCGATTAGTGCTGGAGA | 0.223
17 | TCCCCCGGAGTAAATGAGA | 0.265
18 | TCCCTTATAGTTGGCGAGA | 0.143
19 | TCCCGAATAGTATTAGAGA | 0.173
20 | TCCCGGAGAGTGTGCGAGA | 0.122
21 | TCCCTGGTAGTCGAAGAGA | 0.187
22 | TCCCTTAAAGTCTACGAGA | 0.771
23 | TCCCACGGAGTCCGAGAGA | 0.139
24 | TCCCTTGCAGTGGGAGAGA | 0.33
25 | TCCCATGAAGTGATTGAGA | 0.192
26 | TCCCACAAAGTGGGGGAGA | 0.131

Row | Sequence | TetR repression strength
27 | TCCCTGTGAGTGCAGGAGA | 0.264
28 | TCCCTCGGAGTCGGTGAGA | 0.164
29 | TCCCGGCTAGTGAGAGAGA | 0.591
30 | TCCCGCACAGTTCCAGAGA | 0.358
31 | TCCCTTTGAGTCTATGAGA | 0.804
32 | TCCCCGCTAGTGGCCGAGA | 0.547
33 | TCCCTGCCAGTTTGGGAGA | 0.218
34 | TCCCAAGCAGTGGGTGAGA | 0.184
35 | TCCCTCGTAGTTCGCGAGA | 0.168
36 | TCCCCGCGAGTGGTTGAGA | 0.173
37 | TCCCAATAAGTTCGCGAGA | 0.138
38 | TCCCTGTTAGTTGTGGAGA | 0.264
39 | TCCCAATTAGTTCAGGAGA | 0.155
40 | TCCCGACGAGTGCCAGAGA | 0.21
41 | TCCCTGTCAGTGTGCGAGA | 0.333
42 | TCCCGGGCAGTTCAAGAGA | 0.417
43 | TCCCCTATAGTGGAGGAGA | 0.0642
44 | TCCCCCGCAGTCACTGAGA | 0.543
45 | TCCCTCGAAGTAGGTGAGA | 0.144
46 | TCCCCTGCAGTCCTCGAGA | 0.311
47 | TCCCATGGAGTATTGGAGA | 0.229
48 | TCCCAGTAAGTTGTAGAGA | 0.455
49 | TCCCGCTCAGTGGTCGAGA | 0.297
50 | TCCCAGACAGTTGCGGAGA | 0.159
51 | TCCCGGTGAGTGTGAGAGA | 0.148
52 | TCCCGGACAGTTTGAGAGA | 0.419

Row | Sequence | TetR repression strength
53 | TCCCCACTAGTGGCGGAGA | 0.514
54 | TCCCTCCTAGTTGAAGAGA | 0.185
55 | TCCCCGCTAGTGAGAGAGA | 0.247
56 | TCCCTCAAAGTGGTGGAGA | 0.309
57 | TCCCTTTAAGTCGGGGAGA | 0.33
58 | TCCCGTCGAGTATAGGAGA | 0.207
59 | TCCCGTGAAGTTGGCGAGA | 0.105
60 | TCCCGCGCAGTGGTAGAGA | 0.143
61 | TCCCACTTAGTGTCAGAGA | 0.2
62 | TCCCCGAGAGTACGGGAGA | 0.343
63 | TCCCATTTAGTCGGAGAGA | 0.231
64 | TCCCGATCAGTGGCCGAGA | 0.565
65 | TCCCCGCCAGTTAATGAGA | 0.303
66 | TCCCGTTTAGTGGGGGAGA | 0.204
67 | TCCCGCCGAGTTTGTGAGA | 0.115
68 | TCCCGGGGAGTGTTTGAGA | 0.62
69 | TCCCGGAAAGTCGCCGAGA | 0.0987
70 | TCCCGCGCAGTCAGTGAGA | 0.415
71 | TCCCCGCGAGTGTGAGAGA | 0.259
72 | TCCCTTAGAGTTTTAGAGA | 0.114
73 | TCCCTAGAAGTAGACGAGA | 0.517
74 | TCCCAGTCAGTGTGGGAGA | 0.271
75 | TCCCAGAGAGTGTAGGAGA | 0.0985
76 | TCCCCTTAAGTCCCTGAGA | 0.266
77 | TCCCTCTAAGTGGGCGAGA | 0.24
78 | TCCCTACAAGTGACCGAGA | 0.322

Row | Sequence | TetR repression strength
79 | TCCCAACCAGTAGACGAGA | 0.263
80 | TCCCAAGGAGTGTCAGAGA | 0.165
81 | TCCCTTTTAGTAATTGAGA | 0.323
82 | TCCCGAATAGTGGGGGAGA | 0.176
83 | TCCCCACGAGTGGGCGAGA | 0.207
84 | TCCCCTGCAGTCTCGGAGA | 0.277
85 | TCCCAAACAGTCTAAGAGA | 0.268
86 | TCCCTTGTAGTATATGAGA | 0.371
87 | TCCCTTGCAGTTCGGGAGA | 0.21
88 | TCCCAGCGAGTATGTGAGA | 0.127
89 | TCCCGTGAAGTGTCAGAGA | 0.186
90 | TCCCTTGAAGTACGTGAGA | 0.0446
91 | TCCCGATGAGTCAGTGAGA | 0.38
92 | TCCCACTAAGTGGGAGAGA | 0.231
93 | TCCCATTAAGTTGGTGAGA | 0.0988
94 | TCCCTAGTAGTGATTGAGA | 0.384
95 | TCCCGTCCAGTGGGCGAGA | 0.398
96 | TCCCGCTAAGTGTGCGAGA | 0.158
97 | TCCCGACCAGTGTGCGAGA | 0.163
98 | TCCCAATCAGTGTATGAGA | 0.259
99 | TCCCAGAGAGTTAGCGAGA | 0.557
100 | TCCCGCAGAGTCCGCGAGA | 0.224
101 | TCCCTTAAAGTGATCGAGA | 0.207
102 | TCCCAAGCAGTCGGGGAGA | 0
